The record followed here is article PMC9810599.

The chains behind the UniProt entries cited, without tags or fusion partners. Where a name states a change or a piece, a line headed by the entry shows the natural chain unless it says otherwise. Residues count along the entry.
UniProt P0CS90, residues 24-654: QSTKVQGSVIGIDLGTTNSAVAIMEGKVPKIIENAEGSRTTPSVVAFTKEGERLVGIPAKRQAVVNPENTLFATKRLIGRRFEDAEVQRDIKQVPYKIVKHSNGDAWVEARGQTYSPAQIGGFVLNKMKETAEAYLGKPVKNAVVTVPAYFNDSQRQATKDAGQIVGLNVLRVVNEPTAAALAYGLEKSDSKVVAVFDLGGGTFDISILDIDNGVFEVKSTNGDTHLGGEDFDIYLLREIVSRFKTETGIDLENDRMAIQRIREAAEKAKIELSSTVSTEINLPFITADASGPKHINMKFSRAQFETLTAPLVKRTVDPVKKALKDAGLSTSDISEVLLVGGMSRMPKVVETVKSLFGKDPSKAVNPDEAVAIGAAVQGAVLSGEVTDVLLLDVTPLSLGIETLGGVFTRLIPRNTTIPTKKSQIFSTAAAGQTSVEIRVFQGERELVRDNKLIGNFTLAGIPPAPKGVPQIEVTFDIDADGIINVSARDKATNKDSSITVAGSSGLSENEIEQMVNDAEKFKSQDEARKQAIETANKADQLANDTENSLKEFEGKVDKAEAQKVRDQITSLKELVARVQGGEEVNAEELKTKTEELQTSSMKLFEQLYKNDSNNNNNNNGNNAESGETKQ
UniProt P07251, residues 36-545: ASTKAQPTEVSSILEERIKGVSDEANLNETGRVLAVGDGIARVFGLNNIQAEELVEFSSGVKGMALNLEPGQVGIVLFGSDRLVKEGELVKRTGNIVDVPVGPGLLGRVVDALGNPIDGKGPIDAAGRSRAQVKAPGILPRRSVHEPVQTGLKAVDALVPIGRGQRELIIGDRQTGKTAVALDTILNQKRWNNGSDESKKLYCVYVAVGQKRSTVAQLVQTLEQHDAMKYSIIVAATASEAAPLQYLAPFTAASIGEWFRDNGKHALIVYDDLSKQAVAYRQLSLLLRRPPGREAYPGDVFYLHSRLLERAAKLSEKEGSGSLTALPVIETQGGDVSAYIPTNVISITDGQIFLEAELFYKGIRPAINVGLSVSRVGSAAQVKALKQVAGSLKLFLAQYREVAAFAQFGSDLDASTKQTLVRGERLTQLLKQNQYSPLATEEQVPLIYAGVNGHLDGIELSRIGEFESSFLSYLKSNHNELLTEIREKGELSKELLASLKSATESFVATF
UniProt P00830, residues 34-511: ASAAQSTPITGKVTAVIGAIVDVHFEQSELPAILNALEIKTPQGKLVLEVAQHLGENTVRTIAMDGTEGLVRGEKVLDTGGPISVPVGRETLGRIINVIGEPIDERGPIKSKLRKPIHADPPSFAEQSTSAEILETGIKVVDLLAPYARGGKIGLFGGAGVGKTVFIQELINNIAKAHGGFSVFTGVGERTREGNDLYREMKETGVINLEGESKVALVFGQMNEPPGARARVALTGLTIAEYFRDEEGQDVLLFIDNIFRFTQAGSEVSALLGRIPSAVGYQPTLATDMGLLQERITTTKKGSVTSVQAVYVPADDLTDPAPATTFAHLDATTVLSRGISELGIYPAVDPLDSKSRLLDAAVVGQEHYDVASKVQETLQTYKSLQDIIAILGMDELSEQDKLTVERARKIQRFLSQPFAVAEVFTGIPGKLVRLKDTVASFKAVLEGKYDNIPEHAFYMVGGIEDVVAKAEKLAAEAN

These are yes or no findings as the source states them, for the method shown. Binding seen in cells or lysates may run through a third protein. Some binding calls cover weakened binding; strength is not graded here. For some assays here: Sequences can lack the tags named with a protein.

The target of experiment [1] is His-tagged mitochondrial Hsp70 (mtHsp70His) (S. cerevisiae) (UniProt P0CS90). In words: pull-down; mtHsp70His purified on Ni-NTA agarose from digitonin-lysed ρ+ and ρ0 mitochondria, in the absence of ATP; SDS-PAGE and immunodetection.
Experiment [2] deals with T1, His-tagged Atp11 (Atp11His) (S. cerevisiae) (UniProt P32453).
T1 sequence: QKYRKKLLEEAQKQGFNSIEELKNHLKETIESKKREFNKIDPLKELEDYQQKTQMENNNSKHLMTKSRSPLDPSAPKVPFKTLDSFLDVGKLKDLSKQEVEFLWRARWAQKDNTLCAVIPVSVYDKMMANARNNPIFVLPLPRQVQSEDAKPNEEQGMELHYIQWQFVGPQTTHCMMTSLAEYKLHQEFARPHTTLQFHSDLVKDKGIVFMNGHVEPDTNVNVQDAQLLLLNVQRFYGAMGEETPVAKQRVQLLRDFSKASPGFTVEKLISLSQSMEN
In words: pull-down; Atp11His or Atp12His purified on Ni-NTA agarose from digitonin-lysed mitochondria without added ATP; also in the ssc1-62 background after shift to non-permissive conditions; SDS-PAGE and immunodetection.

Experiment [3] deals with T2, His-tagged Ina17 (Ina17His) (S. cerevisiae) (UniProt Q02888).
T2 sequence: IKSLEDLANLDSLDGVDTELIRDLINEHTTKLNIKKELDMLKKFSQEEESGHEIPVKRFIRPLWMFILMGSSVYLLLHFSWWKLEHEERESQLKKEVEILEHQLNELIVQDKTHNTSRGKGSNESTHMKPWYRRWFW
In words: pull-down; Ina17His or Ina22His purified on Ni-NTA agarose from digitonin-lysed mitochondria; also with pre-incubation of the lysate with ATP and with elution of bound proteins by 20 mM ATP; SDS-PAGE and immunodetection.

The target in experiment [4] is T3, His-tagged Ina22 (Ina22His) (S. cerevisiae) (UniProt P40576).
T3 sequence: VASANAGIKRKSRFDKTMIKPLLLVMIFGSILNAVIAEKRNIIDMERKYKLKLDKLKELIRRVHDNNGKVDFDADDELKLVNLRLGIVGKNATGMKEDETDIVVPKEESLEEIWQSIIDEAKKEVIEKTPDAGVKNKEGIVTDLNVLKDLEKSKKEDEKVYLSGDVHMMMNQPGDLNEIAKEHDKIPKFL
The description is as above.

Experiment [5] deals with T1, His-tagged Atp11 (Atp11His) (S. cerevisiae). The experiment is described as follows: condition: only preincubation of mitochondrial lysates with ATP (20 mM ATP pH 7.5); pull-down; Atp11His or Atp12His purified on Ni-NTA agarose from mitochondrial lysates pre-incubated with ATP (20 mM ATP pH 7.5 in lysis buffer); SDS-PAGE and immunodetection.
In experiment [6] the target is mitochondrial Hsp70 (mtHsp70), wild type (S. cerevisiae (endogenous in yeast mitochondria)) (UniProt P0CS90). In words: pull-down; mtHsp70 with its bound proteins captured on Mge1His-coated Ni-NTA agarose from digitonin lysates of mitochondria (wild type, ρ0, atp3∆, atp4∆, atp5∆, atp7∆, atp14∆, ina17∆, ina22∆, ssc1-62, cells overexpressing Atp5 or Atp5^G183A); SDS-PAGE and immunodetection.

Experiment [7] deals with T4, Tim17His (His-tagged Tim17) (S. cerevisiae) (UniProt P39515).
T4 sequence: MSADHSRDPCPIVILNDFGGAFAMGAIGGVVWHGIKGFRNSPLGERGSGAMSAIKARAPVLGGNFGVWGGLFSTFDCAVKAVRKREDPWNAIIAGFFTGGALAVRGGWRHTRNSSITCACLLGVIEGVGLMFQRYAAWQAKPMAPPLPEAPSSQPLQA
The experiment is described as follows: pull-down; mitochondria with the His-tagged bait lysed in 1% digitonin (20 mM Tris/HCl pH 7.4, 0.1 mM EDTA, 50 mM NaCl, 10% glycerol, 10 mM imidazole), bound to Ni-NTA agarose 1 h at 4 °C, washed with 40 mM imidazole, eluted with 250 mM imidazole; SDS-PAGE and immunodetection; WT mitochondria as control.

The target in experiment [8] is His-tagged Atp1 (Atp1His) (S. cerevisiae) (UniProt P07251). The experiment is described as follows: pull-down; Atp1His purified on Ni-NTA agarose from lysed mitochondria; immunoblotting.
Experiment [9] addresses T5, His-tagged Atp12 (Atp12His) (S. cerevisiae) (UniProt P22135).
T5 sequence: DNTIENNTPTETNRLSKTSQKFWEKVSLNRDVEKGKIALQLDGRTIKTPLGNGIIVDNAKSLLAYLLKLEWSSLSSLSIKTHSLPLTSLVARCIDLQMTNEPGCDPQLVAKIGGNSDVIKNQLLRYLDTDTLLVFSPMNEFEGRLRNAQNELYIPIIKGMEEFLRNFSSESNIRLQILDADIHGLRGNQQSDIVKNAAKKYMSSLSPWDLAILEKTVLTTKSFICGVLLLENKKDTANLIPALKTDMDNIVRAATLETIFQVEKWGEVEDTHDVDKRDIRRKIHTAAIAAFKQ
In words: pull-down; Atp11His or Atp12His purified on Ni-NTA agarose from digitonin-lysed mitochondria without added ATP; also in the ssc1-62 background after shift to non-permissive conditions; SDS-PAGE and immunodetection.

Experiment [10] concerns the target T5, His-tagged Atp12 (Atp12His) (S. cerevisiae). The experiment is described as follows: condition: only preincubation of mitochondrial lysates with ATP (20 mM ATP pH 7.5); pull-down; Atp11His or Atp12His purified on Ni-NTA agarose from mitochondrial lysates pre-incubated with ATP (20 mM ATP pH 7.5 in lysis buffer); SDS-PAGE and immunodetection.
Experiment [11] has the same target. In words: pull-down; Atp11His or Atp12His purified on Ni-NTA agarose from mitochondrial lysates pre-incubated with ATP (20 mM ATP pH 7.5 in lysis buffer); SDS-PAGE and immunodetection.

Regarding “Atp2 (subunit β of the ATP synthase) (from UniProt P00830 34-511)”, the binding result was “binds” in [1]; “binds” in [2]; “binds” in [3]; “binds” in [4]; “no binding” in [5]; “binds” in experiment [6]. Also, the binding result in [7] is given as “no binding”.
With “mitochondrial Hsp70 (mtHsp70), wild type (from UniProt P0CS90 24-654)”, the binding entry in [8] is “binds”; in experiment [2] it was “binds”; in experiment [9] it was “binds”; in experiment [5] it was “no binding”; in [10], “no binding”.
With “Atp1 (subunit α of the ATP synthase) (from UniProt P07251 36-545)”, the binding entry in experiment [1], in experiment [11], in experiment [9], in experiment [3], in experiment [4] and in experiment [6] was “binds” in each case. Moreover, the binding result in experiment [7] is “no binding”.
Regarding “mitochondrial Hsp70 (mtHsp70) (from UniProt P0CS90 24-654)”, the binding entry in experiment [7] is reported as “binds”.
